The list shows a part of the results.
Assays:
Assay in all cases: glycan array binding signal (z-score within array); higher = stronger binding
Settings in all cases: glycan notation: IUPAC condensed, linker removed
Gal(b1-4)Glc = target: Gal(b1-4)Glc
Outline: (§1)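 From the Consortium for Functional Glycomics database, 3228 arrays were curated, keeping only those whose protein sequence was available. Binding is given as a within-array Z-score averaged across arrays sharing a protein sequence and across linkers. Negative Z-scores can be read as non-binding.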

Gal(b1-4)Glc6S = target: Gal(b1-4)Glc6S
Outline: as §1

Gal(b1-4)GlcNAc = target: Gal(b1-4)GlcNAc
Outline: as §1

[1] = target: Gal(b1-4)GlcNAc(a1-6)Gal(b1-4)GlcNAc
Outline: as §1

Gal(b1-4)GlcNAc(b1-2)Man = target: Gal(b1-4)GlcNAc(b1-2)Man
Outline: as §1

[2] = target: Gal(b1-4)GlcNAc(b1-2)Man(a1-3)Man(b1-4)GlcNAc(b1-4)GlcNAc
Outline: as §1

[3] = target: Gal(b1-4)GlcNAc(b1-2)Man(a1-3)[Gal(b1-4)GlcNAc(b1-2)Man(a1-6)]Man(b1-4)GlcNAc(b1-4)GlcNAc
Outline: as §1

[4] = target: Gal(b1-4)GlcNAc(b1-2)Man(a1-3)[Gal(b1-4)GlcNAc(b1-2)Man(a1-6)]Man(b1-4)GlcNAc(b1-4)[Fuc(a1-6)]GlcNAc
Outline: as §1

[5] = target: Gal(b1-4)GlcNAc(b1-2)Man(a1-3)[Gal(b1-4)GlcNAc(b1-2)Man(a1-6)][Gal(b1-4)GlcNAc(b1-4)]Man(b1-4)GlcNAc(b1-4)[Fuc(a1-6)]GlcNAc
Outline: as §1

[6] = target: Gal(b1-4)GlcNAc(b1-2)Man(a1-3)[Gal(b1-4)GlcNAc(b1-2)Man(a1-6)][GlcNAc(b1-4)]Man(b1-4)GlcNAc(b1-4)[Fuc(a1-6)]GlcNAc
Outline: as §1

[7] = target: Gal(b1-4)GlcNAc(b1-2)Man(a1-3)[GlcNAc(b1-2)Man(a1-6)]Man(b1-4)GlcNAc(b1-4)GlcNAc
Outline: as §1

[8] = target: Gal(b1-4)GlcNAc(b1-2)Man(a1-3)[GlcNAc(b1-4)][Gal(b1-4)GlcNAc(b1-2)Man(a1-6)]Man(b1-4)GlcNAc(b1-4)GlcNAc
Outline: as §1

[9] = target: Gal(b1-4)GlcNAc(b1-2)Man(a1-3)[Man(a1-6)]Man(b1-4)GlcNAc(b1-4)GlcNAc
Outline: as §1

[10] = target: Gal(b1-4)GlcNAc(b1-2)Man(a1-6)Man(b1-4)GlcNAc(b1-4)GlcNAc
Outline: as §1

[11] = target: Gal(b1-4)GlcNAc(b1-2)Man(a1-6)[GlcNAc(b1-2)Man(a1-3)]Man(b1-4)GlcNAc(b1-4)GlcNAc
Outline: as §1

[12] = target: Gal(b1-4)GlcNAc(b1-2)Man(a1-6)[Man(a1-3)]Man(b1-4)GlcNAc(b1-4)GlcNAc
Outline: as §1

[13] = target: Gal(b1-4)GlcNAc(b1-2)[Gal(b1-4)GlcNAc(b1-4)]Man(a1-3)[Gal(b1-4)GlcNAc(b1-2)Man(a1-6)]Man(b1-4)GlcNAc(b1-4)GlcNAc
Outline: as §1

[14] = target: Gal(b1-4)GlcNAc(b1-2)[Gal(b1-4)GlcNAc(b1-4)]Man(a1-3)[Gal(b1-4)GlcNAc(b1-2)[Gal(b1-4)GlcNAc(b1-6)]Man(a1-6)]Man(b1-4)GlcNAc(b1-4)GlcNAc
Outline: as §1

[15] = target: Gal(b1-4)GlcNAc(b1-2)[Gal(b1-4)GlcNAc(b1-4)]Man(a1-3)[GlcNAc(b1-4)][Gal(b1-4)GlcNAc(b1-2)Man(a1-6)]Man(b1-4)GlcNAc(b1-4)GlcNAc
Outline: as §1

[16] = target: Gal(b1-4)GlcNAc(b1-2)[Gal(b1-4)GlcNAc(b1-4)]Man(a1-3)[GlcNAc(b1-4)][Gal(b1-4)GlcNAc(b1-2)[Gal(b1-4)GlcNAc(b1-6)]Man(a1-6)]Man(b1-4)GlcNAc(b1-4)GlcNAc
Outline: as §1

[17] = target: Gal(b1-4)GlcNAc(b1-2)[Gal(b1-4)GlcNAc(b1-6)]Man(a1-6)[Gal(b1-4)GlcNAc(b1-2)Man(a1-3)]Man(b1-4)GlcNAc(b1-4)GlcNAc
Outline: as §1

[18] = target: Gal(b1-4)GlcNAc(b1-2)[Gal(b1-4)GlcNAc(b1-6)]Man(a1-6)[Gal(b1-4)GlcNAc(b1-2)Man(a1-3)]Man(b1-4)GlcNAc(b1-4)[Fuc(a1-6)]GlcNAc
Outline: as §1

B1: AT1G15820(NC) (Arabidopsis thaliana) (protein)
chain: MAMAVSGAVLSGLGSSFLTGGKRGATALASGVGDAIAPFSFGSLLGTQLLLMGWVESKRWVDFFNPDSQSVEWATPWSKTAENFANYTGDQGYPGGRFFDPLGLAGKNRDGVYEPDFEKLERLKLAEIKHSRLAMVAMLIFYFEAGQGKTPLGALGL
With B1 the “glycan array binding signal (z-score)” value (Gal(b1-4)Glc) was 0.051, the “glycan array binding signal (z-score)” value (Gal(b1-4)Glc6S) was 0.369 and the “glycan array binding signal (z-score)” value (Gal(b1-4)GlcNAc) was -0.455. For the same binder, the “glycan array binding signal (z-score)” value [1] was 0.124, the “glycan array binding signal (z-score)” value (Gal(b1-4)GlcNAc(b1-2)Man) was -0.121 and the “glycan array binding signal (z-score)” value [2] was 0.067. For the same binder, the “glycan array binding signal (z-score)” value [3] was -0.635, the “glycan array binding signal (z-score)” value [4] was 0.043 and the “glycan array binding signal (z-score)” value [5] was -0.427. The “glycan array binding signal (z-score)” value [6] was -0.274, the “glycan array binding signal (z-score)” value [7] was -0.483 and the “glycan array binding signal (z-score)” value [8] was -0.435. For the same binder, the “glycan array binding signal (z-score)” value [9] was -0.554, the “glycan array binding signal (z-score)” value [10] was -0.602 and the “glycan array binding signal (z-score)” value [11] was -0.325. The “glycan array binding signal (z-score)” value [12] was -0.331, the “glycan array binding signal (z-score)” value [13] was -0.531 and the “glycan array binding signal (z-score)” value [14] was -0.478. For the same binder, the “glycan array binding signal (z-score)” value [15] was 0.134, the “glycan array binding signal (z-score)” value [16] was -0.213 and the “glycan array binding signal (z-score)” value [17] was -0.585. For the same binder, the “glycan array binding signal (z-score)” value [18] was -0.328.

Source: the supplement of paper PMC8728848
